The list shows a part of the results. Sequences were assembled here from the parent chain. Values near 0.05 are background.
B1: TEV protease; numbered along this chain (parent)
chain: MGESLFKGPRDYNPISSSICHLTNESDGHTTSLYGIGFGPFIITNKHLFRRNNGTLVVQSLHGVFKVKDTTTLQQHLVDGRDMIIIRMPKDFPPFPQKLKFREPQREERICLVTTNFQTKSMSSMVSDTSCTFPSGDGIFWKHWIQTKDGQCGSPLVSTRDGFIVGIHSASNFTNTNNYFTSVPKNFMELLTNQEAQQWVSGWRLNADSVLWGGHKVFMVKPEEPFQPVKEATQL

Variants of: B1
Assay: raw area under fraction-flipped curve 0-4 h after induction (AUC4h, not background-subtracted), DNA-recorder readout of cleavage of the substrate (dimensionless); higher = more cleavage of the substrate by the protease variant
Conditions: temperature: 34 °C; time window: 0-4 h after rhamnose induction
Method: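 In vivo DNA recorder in E. coli TOP10(DE3) ΔrhaA at 34 °C. Each TEVp single-site mutant (parent TEVp 0) is paired with a single-site variant of the 7-mer TEVs (canonical ENLYFQ|S). The substrate sits between flexible linkers in a Bxb1-sfGFP-TEVs-SsrA fusion, so cleavage stabilises Bxb1 and speeds flipping of a recombination array, read by NGS. The value is the raw area under the fraction-flipped curve over 0-4 h after rhamnose induction (AUC4h), with ≥20 reads per time point. It is not background-subtracted; inactive controls average about 0.047.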
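Also: Bxb1 expression induced with 0.2% (w/v) L-rhamnose at OD600 near 0.5, cultures sampled hourly, flipped fraction per protease–substrate barcode pair counted by paired-end Illumina sequencing.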

| Variant | area with substrate CNLYFQS | area with substrate DNLYFQS | area with substrate HNLYFQS | area with substrate INLYFQS | area with substrate KNLYFQS | area with substrate LNLYFQS | area with substrate MNLYFQS | area with substrate PNLYFQS | area with substrate QNLYFQS | area with substrate RNLYFQS | area with substrate TNLYFQS | area with substrate WNLYFQS | area with substrate YNLYFQS | area with substrate GNLYFQS | area with substrate SNLYFQS | area with substrate VNLYFQS | area with substrate FNLYFQS | area with substrate NNLYFQS |
| --- | --- | --- | --- | --- | --- | --- | --- | --- | --- | --- | --- | --- | --- | --- | --- | --- | --- | --- |
| MGESLFKGPRDYNPISSSICHLTNESDGHTTSLYGIGFGPFAITNKHLFRRNNGTLVVQSLHGVFKVKDTTTLQQHLVDGRDMIIIRMPKDFPPFPQKLKFREPQREERICLVTTNFQTKSMSSMVSDTSCTFPSGDGIFWKHWIQTKDGQCGSPLVSTRDGFIVGIHSASNFTNTNNYFTSVPKNFMELLTNQEAQQWVSGWRLNADSVLWGGHKVFMVKPEEPFQPVKEATQL [I42A] | 0.0463 | 0.0498 | 0.0535 | 0.0213 | 0.0563 | 0.048 | 0.0514 | 0.0424 | 0.0478 | 0.0453 | 0.0539 | 0.0451 | 0.0546 | – | – | – | – | – |
| MGESLFKGPRDYNPISSSICHLTNESDGHTTSLYGIGFGPFRITNKHLFRRNNGTLVVQSLHGVFKVKDTTTLQQHLVDGRDMIIIRMPKDFPPFPQKLKFREPQREERICLVTTNFQTKSMSSMVSDTSCTFPSGDGIFWKHWIQTKDGQCGSPLVSTRDGFIVGIHSASNFTNTNNYFTSVPKNFMELLTNQEAQQWVSGWRLNADSVLWGGHKVFMVKPEEPFQPVKEATQL [I42R] | 0.0552 | 0.0521 | 0.0462 | 0.0433 | 0.0472 | 0.0489 | 0.039 | 0.0463 | – | – | 0.0428 | 0.0462 | 0.0654 | 0.0558 | 0.0463 | – | – | – |
| MGESLFKGPRDYNPISSSICHLTNESDGHTTSLYGIGFGPFFITNKHLFRRNNGTLVVQSLHGVFKVKDTTTLQQHLVDGRDMIIIRMPKDFPPFPQKLKFREPQREERICLVTTNFQTKSMSSMVSDTSCTFPSGDGIFWKHWIQTKDGQCGSPLVSTRDGFIVGIHSASNFTNTNNYFTSVPKNFMELLTNQEAQQWVSGWRLNADSVLWGGHKVFMVKPEEPFQPVKEATQL [I42F] | 0.0586 | 0.0577 | 0.0537 | 0.0578 | 0.0521 | – | – | 0.0514 | 0.0528 | – | 0.0558 | 0.0513 | 0.0416 | 0.0537 | – | – | – | – |
| MGESLFKGPRDYNPISSSICHLTNESDGHTTSLYGIGFGPFLITNKHLFRRNNGTLVVQSLHGVFKVKDTTTLQQHLVDGRDMIIIRMPKDFPPFPQKLKFREPQREERICLVTTNFQTKSMSSMVSDTSCTFPSGDGIFWKHWIQTKDGQCGSPLVSTRDGFIVGIHSASNFTNTNNYFTSVPKNFMELLTNQEAQQWVSGWRLNADSVLWGGHKVFMVKPEEPFQPVKEATQL [I42L] | 0.106 | 0.0837 | 0.0588 | 0.072 | – | 0.0688 | 0.0499 | 0.0787 | – | – | 0.0481 | 0.0838 | 0.0588 | 0.0292 | 0.0793 | 0.0712 | – | – |
| MGESLFKGPRDYNPISSSICHLTNESDGHTTSLYGIGFMPFIITNKHLFRRNNGTLVVQSLHGVFKVKDTTTLQQHLVDGRDMIIIRMPKDFPPFPQKLKFREPQREERICLVTTNFQTKSMSSMVSDTSCTFPSGDGIFWKHWIQTKDGQCGSPLVSTRDGFIVGIHSASNFTNTNNYFTSVPKNFMELLTNQEAQQWVSGWRLNADSVLWGGHKVFMVKPEEPFQPVKEATQL [G39M] | 0.0458 | 0.0527 | 0.0316 | – | 0.035 | 0.0456 | 0.0398 | 0.0311 | – | – | 0.0303 | 0.05 | 0.0457 | 0.0363 | – | – | 0.0219 | – |
| MGESLFKGPRDYNPISSSICHLTNESDGHTTSLYGIGFRPFIITNKHLFRRNNGTLVVQSLHGVFKVKDTTTLQQHLVDGRDMIIIRMPKDFPPFPQKLKFREPQREERICLVTTNFQTKSMSSMVSDTSCTFPSGDGIFWKHWIQTKDGQCGSPLVSTRDGFIVGIHSASNFTNTNNYFTSVPKNFMELLTNQEAQQWVSGWRLNADSVLWGGHKVFMVKPEEPFQPVKEATQL [G39R] | 0.0573 | 0.0529 | 0.0387 | – | – | 0.0554 | 0.036 | 0.0403 | – | – | 0.0454 | 0.046 | 0.0337 | 0.0472 | 0.0511 | 0.0587 | – | 0.0403 |
| MGESLFKGPRDYNPISSSICHLTNESDGHTTSLYGIGFGPFIIPNKHLFRRNNGTLVVQSLHGVFKVKDTTTLQQHLVDGRDMIIIRMPKDFPPFPQKLKFREPQREERICLVTTNFQTKSMSSMVSDTSCTFPSGDGIFWKHWIQTKDGQCGSPLVSTRDGFIVGIHSASNFTNTNNYFTSVPKNFMELLTNQEAQQWVSGWRLNADSVLWGGHKVFMVKPEEPFQPVKEATQL [T44P] | 0.0331 | 0.0495 | – | 0.0526 | – | 0.0215 | – | 0.0469 | – | – | 0.0487 | 0.0654 | 0.0266 | 0.0651 | – | – | 0.0415 | – |
| MGESLFKGPRDYNPISSSICHLTNESDGHTTSLYGIGFGPFIISNKHLFRRNNGTLVVQSLHGVFKVKDTTTLQQHLVDGRDMIIIRMPKDFPPFPQKLKFREPQREERICLVTTNFQTKSMSSMVSDTSCTFPSGDGIFWKHWIQTKDGQCGSPLVSTRDGFIVGIHSASNFTNTNNYFTSVPKNFMELLTNQEAQQWVSGWRLNADSVLWGGHKVFMVKPEEPFQPVKEATQL [T44S] | 0.0599 | 0.0771 | 0.0668 | 0.0574 | 0.0596 | 0.069 | 0.101 | 0.0586 | – | – | 0.0605 | 0.0445 | 0.0525 | 0.061 | 0.0597 | 0.0636 | 0.0668 | 0.0687 |
| MGESLFKGPRDYNPISSSICHLTNESDGHTTSLYGIGFGPFIITTKHLFRRNNGTLVVQSLHGVFKVKDTTTLQQHLVDGRDMIIIRMPKDFPPFPQKLKFREPQREERICLVTTNFQTKSMSSMVSDTSCTFPSGDGIFWKHWIQTKDGQCGSPLVSTRDGFIVGIHSASNFTNTNNYFTSVPKNFMELLTNQEAQQWVSGWRLNADSVLWGGHKVFMVKPEEPFQPVKEATQL [N45T] | 0.0661 | 0.0889 | 0.0566 | – | 0.0785 | 0.0556 | 0.0579 | 0.0667 | – | 0.0669 | 0.062 | 0.0538 | 0.0577 | 0.0614 | 0.0564 | 0.0575 | 0.0288 | 0.0517 |
| MGESLFKGPRDYNPISSSICHLTNESDGHTTSLYGIGFGPFISTNKHLFRRNNGTLVVQSLHGVFKVKDTTTLQQHLVDGRDMIIIRMPKDFPPFPQKLKFREPQREERICLVTTNFQTKSMSSMVSDTSCTFPSGDGIFWKHWIQTKDGQCGSPLVSTRDGFIVGIHSASNFTNTNNYFTSVPKNFMELLTNQEAQQWVSGWRLNADSVLWGGHKVFMVKPEEPFQPVKEATQL [I43S] | 0.0411 | 0.0609 | 0.0551 | 0.0467 | 0.0571 | – | 0.0364 | 0.0475 | – | 0.0268 | 0.049 | 0.048 | 0.0387 | 0.0436 | 0.0551 | 0.0566 | 0.0266 | 0.0404 |

— the supplement of paper PMC12217912
